# PubChem BioAssay AID1345083 (National Center for Advancing Translational Sciences (NCATS), 2018)
# Among all 94,000 compounds or so, about 6,200 (6.6%) were called active. The shares of active, inactive and inconclusive entries below differ from those in the screen. Calls come from the whole dose curve; as a rule, active = well fitted inhibition curve with a large enough effect; inconclusive = small, poorly fitted or top-dose-only effect; inactive = flat fitted curve, though single readings scatter. Where the call is inconclusive, the potency comes from a doubtful curve fit.
# Test: Cytotoxic Profiling in HEK 293 Cell Line of Diverse Libraries Using Quantitative High-Throughput Screening; note: nearly all actives have a fitted effect of over 60% in size
# Settings: HEK 293 viability, ATP luminescence (CellTiter-Glo), 48-72 h; activity change, negative = cytotoxicity: at 115 µM (top of the series) unless noted; series mostly up to 115 µM
# Method in brief: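 HEK 293 cells seeded at 250 cells/well were exposed to compound for 48 or 72 hr at 37 degree Celsius. Viability taken as ATP content by CellTiter-Glo luminescence.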
# % is set by controls: 0 for no effect and ±100 for the full control effect; potency is the fitted concentration of half-maximal effect; tags give direction and shape of the fitted curve.
SMILES,Potency,outcome,"activity change, negative = cytotoxicity"
CNC(=O)c1cccc(-c2cnc(Nc3cccc(C(F)(F)F)c3)c3c2CCO3)c1,active: 63.1 µM,–,–
O=C(Cc1ccccc1)N1C[C@@H](CO)[C@@H]2Oc3ccc(Cl)cc3[C@@H]21,active: 79.4 µM,–,–
CCOC(=O)C1(Cc2ccc(Cl)cc2)CCN(C(=O)CC2=CCCCC2)CC1,"inconclusive: 89.1 µM [inhibitor, single point]",–,–
O=C(c1ccc(C(F)(F)F)cc1)N1CCc2nc(-c3ccc(Cl)cc3)nc(-c3ccccc3)c2C1,active: 20 µM,–,–
CCn1c2c(c(=O)n1-c1ccccc1)CCN(Cc1cncc(OC)c1)C2,–,inactive [at 172 µM],–
O=C1NCCOCCN(S(=O)(=O)c2ccc3c(c2)CCC3)[C@@H]2CCCC[C@H]12,"inconclusive: 50.1 µM [inhibitor, partial curve, poor fit]",–,–
CC(=O)N1CCN(c2cc(-c3noc([C@@H]4CCCN4C4CCC4)n3)ccn2)CC1,–,–,inactive: -23.6% [at 172 µM]
CS(=O)(=O)N1CCCC1c1noc(CCC(=O)N2CC=C(c3ccccc3)CC2)n1 (stereo unspecified),"inconclusive: 100 µM [inhibitor, single point]",–,–
Cn1cccc1CN1CCC(N2Cc3ccccc3C2=O)CC1,–,–,inactive: -11.4%
COc1cccc(CNC(=O)Nc2cccn3nc(C)nc23)c1,–,–,inactive: -2.08%
NCc1cccc(-c2ccc(F)cc2F)c1,"inconclusive: 126 µM [inhibitor, single point]",–,–
N#Cc1ccccc1CN1CCC([C@@H]2CNC[C@H]2CO)CC1,–,–,inactive: -11.6%
COc1ccc(CN2CCC3(C2)C(=O)N(c2ccccc2)c2ccccc23)cc1 (stereo unspecified),active: 50.1 µM,–,–
O=C(c1cccs1)N1CC[C@H](c2nnc(-c3ccc(Cl)cc3)o2)C1,"inconclusive: 126 µM [inhibitor, single point]",–,–
COc1ccc2c3c1CN(C(=O)COc1ccccc1)CC3=CC(C)(C)CO2,"inconclusive: 50.1 µM [inhibitor, partial curve, poor fit]",–,–
Cc1cc(=O)n(CC(=O)Nc2ccc(F)cc2)c(N2CCc3ccccc3C2)n1,active: 39.8 µM,–,–
C[S+](=O)([O-])N1C[C@H](C(=O)Nc2ccccc2)C[C@@H]1c1ccc(F)cc1,"inconclusive: 112 µM [inhibitor, single point]",–,–
O=C(NCc1cccc(F)c1)c1cnc2c(c1)N(C(=O)Cc1cccc(C(F)(F)F)c1)CCC2,"inconclusive: 79.4 µM [inhibitor, partial curve, poor fit]",–,–
COCCn1nc2n(c1=O)CCN(C(=O)Cc1c[nH]c3ccccc13)CC2,–,–,inactive: 4.32%
CCOc1ccc(NC(=O)NCC2CCOCC2)cc1,–,–,inactive: -20.8%
COc1ccc(OCC2CN(Cc3cccs3)[S+](=O)([O-])c3cccnc3O2)cc1 (stereo unspecified),"inconclusive: 31.6 µM [inhibitor, partial curve]",–,–

SMILES,Potency,outcome,"activity change, negative = cytotoxicity"
O=C(c1cc(-c2cc(Cl)cc(Cl)c2)c2cccn2n1)N1CCOCC1,"inconclusive: 44.7 µM [inhibitor, partial curve, poor fit]",–,–
CCN1c2cc(C(=O)Nc3ccc(Br)c(C)c3)ccc2C(=O)N2CCCCC21 (stereo unspecified),"inconclusive: 39.8 µM [inhibitor, full curve, poor fit]",–,–
O=C(NCc1cccc(F)c1)C1CCN(C(=O)c2ccc(-c3cccs3)cc2)CC1,"inconclusive: 39.8 µM [inhibitor, partial curve]",–,–
CC1=C[C@@H](CN2CCC(CO)CC2)[C@H](C(C)C)C[C@H]1Cc1nnc(-c2ccc([N+](=O)[O-])cc2)o1,"inconclusive: 50.1 µM [inhibitor, partial curve, poor fit]",–,–
O=C(c1nnn2c1COC(c1ccccc1)C2)N1CCN(C(=O)C2(c3ccccc3)CC2)CC1 (stereo unspecified),"inconclusive: 79.4 µM [inhibitor, single point]",–,–
COc1cc(CNC(=O)C2Cn3cccc3C(=O)N2CC(C)C)cc(OC)c1 (stereo unspecified),–,–,inactive: -9.95%
O=c1[nH]c(C2CCN(CC3CCCC3)CC2)nc2ccc(F)cc12,inactive,–,–
CC(=O)N1Cc2ccccc2CC2(CCCN2CC2CCCC2)C1 (stereo unspecified),"inconclusive: 89.1 µM [inhibitor, partial curve]",–,–
COc1ccc(-n2c(=O)c(C(=O)Nc3cccc(Cl)c3)nc3cccnc32)cc1,"inconclusive: 89.1 µM [inhibitor, partial curve, poor fit]",–,–
O=c1n(-c2ccncc2)nc2n1CCN(Cc1ccccc1)C2,active: 79.4 µM,–,–
CC(C)c1ccc(CN2CC(Oc3ccccc3C(=O)NC3CC3)C2)cc1,"inconclusive: 31.6 µM [inhibitor, partial curve, poor fit]",–,–
COc1ccc(NC(=O)c2ccc3c(c2)N(C(=O)c2ccc(OC)cc2)CC3)cc1,"inconclusive: 22.4 µM [inhibitor, full curve]",–,–
COc1ccc(-c2noc([C@@H]3Cc4nc[nH]c4CN3C(=O)Nc3ccc(C)cc3)n2)cc1,"inconclusive: 89.1 µM [inhibitor, partial curve, poor fit]",–,–
N#Cc1cccc(-c2cn3c(n2)N(C(=O)Cc2ccsc2)CCC3)c1,"inconclusive: 89.1 µM [inhibitor, single point]",–,–
CS(=O)(=O)N1CCOC[C@H](Oc2ccc(C(F)(F)F)cc2)C1,"inconclusive: 100 µM [inhibitor, partial curve, poor fit]",–,–
CC(=O)c1ccc(NC(=O)O[C@@H]2CO[C@H]3[C@@H]2OC[C@@H]3NC(=O)c2ccccc2)cc1,"inconclusive: 126 µM [inhibitor, single point]",–,–
CCC1(N2CCN(S(=O)(=O)c3ccccc3Cl)CC2)CCN(S(C)(=O)=O)C1 (stereo unspecified),"inconclusive: 89.1 µM [inhibitor, single point]",–,–
Cc1cn2nc(C(=O)N3CCC(NC(=O)c4nccc5ccccc45)CC3)cc2c(=O)[nH]1,"inconclusive: 100 µM [inhibitor, single point]",–,–
Cc1noc(C)c1[S+](=O)([O-])N1CCn2c(nn(-c3ccc(Cl)cc3)c2=O)C1,"inconclusive: 100 µM [inhibitor, partial curve, poor fit]",–,–
COc1ccc(OC)c(CNC(=O)C2CCc3sc(C(=O)N4CCCC4)cc3C2)c1 (stereo unspecified),"inconclusive: 44.7 µM [inhibitor, partial curve, poor fit]",–,–
